The values that follow come from PubChem BioAssay AID1508624 (National Center for Advancing Translational Sciences (NCATS), 2021).

The structures appear in SMILES notation. Screen size: about 48,000 compounds; about 120 (0.25%) were called active. Another 4% or so got no clear call; they are omitted. The call rests on the fitted dose curve; in most records, active means well fitted activation curve with a large enough effect; inconclusive means small, poorly fitted or top-dose-only effect, or another doubt; inactive means no such curve, though single readings can be large or run the other way. The list shows a part of the results.

The test in a line: Primary qHTS for Identification of Small Molecule Activators of Huntingtin-Antisense Promoter Activity. Further: nearly all actives have a fitted effect of over 55% in size. The following applies: HEK293 HTT-AS promoter firefly luciferase reporter (activity 0% = vehicle and -100% = no light), 24 h; series mostly up to 57.5 µM; activity change, positive = activation: at the top concentration. The method, boiled down: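 Luminescence was read after Dual-Glo reagent and a 10 min room-temperature incubation. Values were normalized to vehicle (0% activity) and zero RLU (-100% activity). Reporter HEK293 cells had been exposed to compounds (up to 57.5 uM final) for 24 h.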
On to `COc1ccc(-n2c(=O)c3ccc(C(=O)NCc4ccc(C)cc4)cc3n(CC(=O)Nc3ccc(C)cc3)c2=O)cc1`, for which the “activity change, positive = activation” value is inactive: -35.7%.

As for `CC(=O)c1ccc(N2CCN(C3C(=O)c4ccccc4N3C(C)=O)CC2)cc1` (configuration not stated), the “activity change, positive = activation” value is inactive: -11.3%.

As for `O=S(=O)(c1ccc(Br)cc1)c1nnn2c1nc(NCc1cccs1)c1sccc12`, the “activity change, positive = activation” value is inactive: -13.1%.

In the case of `NC(=O)c1cccc2cn(-c3ccc([C@@H]4CCCNC4)cc3)nc12`, the “activity change, positive = activation” value is inactive: -1.33%.

For the compound `COC(=O)[C@]12CCC(C)(C)C[C@@H]1[C@@H]1C(=O)C=C3[C@@]4(C)C=C(C#N)C(=O)C(C)(C)[C@@H]4CC[C@@]3(C)[C@]1(C)CC2`, the “activity change, positive = activation” value was inactive: -87.3%.

With `COCCCNC(=O)C1CCN(c2cc(C)nc3c(-c4ccc(OC)c(OC)c4)c(C)nn23)CC1`, the “activity change, positive = activation” value is inactive: -6.54%.

For `CCOc1cc(-c2nc(-c3ccc(-c4ccc(OC)cc4)nc3OC)no2)cc(OCC)c1OCC`, the “activity change, positive = activation” value is inactive: -4.23%.

For `COc1ccc(Cl)cc1NC(=O)c1nn(C)c2c1CS(=O)(=O)c1ccccc1-2`, the “activity change, positive = activation” value is inactive: -3.51%.

In the case of `COc1ccccc1NC(=O)CCn1c(=O)oc2cc(Cl)ccc21`, the “activity change, positive = activation” value was inactive: -1.98%.

As to `COc1ccc(-n2cc(C(=O)NCc3cccc(OC)c3)c3ccccc3c2=O)cc1`, the “activity change, positive = activation” value is inactive: -4.19%.

Take `CC(C)Oc1ccc(CNC(=O)CCCn2c(=O)c3cccn3c3cccnc32)cc1`: the “activity change, positive = activation” value is inactive: -22.9%.

On to `O=C(c1ccccc1)C(O)c1ccccc1` (configuration not stated), for which the “activity change, positive = activation” value was inactive: 2.71%.

`COc1cccc(-c2nnc3n(Cc4ccccc4Cl)c(=O)c4ccccc4n23)c1O`: the “activity change, positive = activation” value was inactive: -59.1%.

Consider `O=C(NCc1ccc2c(c1)CCN2C(=O)c1ccncc1)c1ccc(Cl)cc1`, for which the “activity change, positive = activation” value is inactive: -9.33%.

Consider `Cc1ccc2c(=O)c(C(=O)c3ccccc3)cn(CC(=O)Nc3ccccc3)c2n1`, for which the “activity change, positive = activation” value is inactive: -7.79%.

As for `Cc1c(Cl)cccc1NC(=O)CN1C(=O)CCn2nc(-c3cccn3C)cc21`, the “activity change, positive = activation” value was inactive: -8.36%.

With `COCCN(CCOC)C(=O)c1cc2c(=O)n3ccccc3nc2n1C`, the “activity change, positive = activation” value is inactive: -10.9%.

`CCOC(=O)C(Cc1c[nH]c2ccccc12)NC(=O)COc1ccc(Cl)cc1` (configuration not stated): the “activity change, positive = activation” value is inactive: -9.99%.

`CCn1c(NCc2cccc(Cl)c2)nc2ccccc21`: the “activity change, positive = activation” value was inactive: -10.5%.

`COc1cc(-c2nc3ccc(C)cn3c2Nc2ccc(Cl)cc2)ccc1O`: the “activity change, positive = activation” value is inactive: -25.3%.

`O=C(CSc1nc(-c2ccccc2)cn1-c1ccccc1)Nc1ccccc1`: the “activity change, positive = activation” value is inactive: -8.47%.

In the case of `COc1cccc(C(=O)NC2=NC(c3ccc(N(C)C)cc3)CC(=O)N2)c1` (configuration not stated), the “activity change, positive = activation” value is inactive: 2.98%.

For the compound `O=C(NCCCN1CCCCC1)c1cc(Sc2ccc(Cl)cc2)nc2ccccc12`, the “activity change, positive = activation” value was inactive: -26.4%.

Take `C[C@H]1O[C@@H](n2cc(F)c(=O)[nH]c2=O)[C@H](O)[C@H]1O`: the “activity change, positive = activation” value is inactive: -2.28%.

Consider `COc1ccc(-c2cc(C(=O)Oc3ccc(C)c(C)c3)c3ccccc3n2)cc1`, for which the “activity change, positive = activation” value is inactive: 2.79%.

For the compound `Cc1cccn2c(=O)c3cc(C(=O)NCc4ccccc4Cl)sc3nc12`, the “activity change, positive = activation” value is inactive: -6.81%.

On to `CCC(C)NC(=O)c1c(-c2ccccc2)c(-c2ccccc2)nn(C)c1=O` (configuration not stated), for which the “activity change, positive = activation” value is inactive: -6.5%.

`Cc1ccc(C(=O)NC2(C(F)(F)F)C(=O)Nc3c2c(=O)[nH]c(=O)n3CCc2ccccc2)cc1` (configuration not stated): the “activity change, positive = activation” value was inactive: -9.53%.

On to `CCOC(=O)c1cc(-c2ccccc2)n(CCCC(=O)Nc2ccc(C)cc2C)c1C`, for which the “activity change, positive = activation” value was inactive: -19%.

Turning to `Cc1c(C(=O)N2CCC(C(=O)Nc3ccc(F)cc3)CC2)sc2nc[nH]c(=O)c12`, the “activity change, positive = activation” value was inactive: -14.4%.

As for `Cc1noc2ncnc(NCc3cccc(Cl)c3)c12`, the “activity change, positive = activation” value was inactive: -39.3%.

With `Cc1cccc(-n2c3nc(=O)n(C)c(=O)c-3cc3ccc(Cl)cc32)c1C`, the “activity change, positive = activation” value was inactive: -10.5%.

On to `Oc1cccc(Nc2ncnc3sc4c(c23)CCCC4)c1`, for which the “activity change, positive = activation” value was inactive: -35.3%.

With `CS(=O)(=O)N1CCc2cc(C(=O)NCc3ccccc3)ccc21`, the “activity change, positive = activation” value is inactive: -9.04%.

For the compound `CC(C)(C)C(=O)N1CCN(c2nc3c(F)cccc3s2)CC1`, the “activity change, positive = activation” value was inactive: 22.7%.

Turning to `CCOc1ccc(-n2c(SCC(=O)N3CCCCC3)nc3c([nH]c4ccccc43)c2=O)cc1`, the “activity change, positive = activation” value is inactive: -7.73%.

As to `O=C(CSc1nc(=O)n(Cc2ccco2)c2c1CCC2)NCc1ccc(F)cc1`, the “activity change, positive = activation” value was inactive: -4.72%.

With `COc1cc2ncnc(Nc3ccc(F)c(Cl)c3)c2cc1NC(=O)C=CCN1CCCCC1`, the “activity change, positive = activation” value is inactive: -20.6%.

With `CC1=C(C(=O)Nc2ccccc2C)C(c2ccccn2)n2nc(SCc3ccccc3F)nc2N1` (configuration not stated), the “activity change, positive = activation” value is inactive: -13.9%.

As for `O=C(CCc1ccc(O)cc1)c1c(O)cc(O)cc1O`, the “activity change, positive = activation” value was inactive: -68%.

On to `COc1ccc2nc(NC(=O)c3ccc(S(=O)(=O)N4CCCC(C)C4)cc3)sc2c1` (configuration not stated), for which the “activity change, positive = activation” value was inactive: -17.2%.

Turning to `CCc1ccc(NC(=O)CSc2nc(=O)n(Cc3ccco3)c3c2CCC3)cc1`, the “activity change, positive = activation” value was inactive: -31.7%.

With `Cc1nc2nc(NC(=O)c3ccc(Cl)cc3)[nH]n2c(=O)c1Cc1ccccc1`, the “activity change, positive = activation” value was inactive: -1.89%.

On to `O=c1[nH]c(SCc2ccc(Br)cc2)nc2c1CCCC2`, for which the “activity change, positive = activation” value was inactive: -5.43%.

`Cc1ccc(S(=O)(=O)c2nnn3c2nc(N2CCN(c4ccccc4F)CC2)c2ccccc23)cc1C`: the “activity change, positive = activation” value is inactive: -10.1%.

Turning to `CC(NC(=O)Cn1c(-c2cccs2)cc2cc(F)ccc21)c1ccccc1` (configuration not stated), the “activity change, positive = activation” value is inactive: -21.3%.

`O=C(NC1CC(=O)N(c2ccc(Cl)cc2)C1)c1cccs1` (configuration not stated): the “activity change, positive = activation” value is inactive: -24.7%.

In the case of `Cc1cc(N2CCC(C)CC2)nc2ccc(NC(=O)/C=C/c3cccc(Cl)c3)cc12`, the “activity change, positive = activation” value was inactive: -9.58%.

`CCOc1ccc(-c2c(C)nn3c(C)c(C(=O)NCc4ccc(C)o4)cnc23)cc1OCC`: the “activity change, positive = activation” value was inactive: -12.5%.

On to `CC(C)c1ccc(Nc2c(-c3ccccc3O)nc3cnccn23)cc1`, for which the “activity change, positive = activation” value is inactive: -26.8%.

As to `Cc1ccc2nc(NC(=O)c3cc(=O)c4cc(Cl)ccc4o3)sc2c1`, the “activity change, positive = activation” value was inactive: -1.51%.

As for `CCc1ccccc1NC(=O)CSc1nnc(CC)c(CC)n1`, the “activity change, positive = activation” value was inactive: -7.28%.

Take `O=C(NCCc1ccc(Cl)cc1)c1ccc(CS(=O)(=O)Cc2ccccc2F)o1`: the “activity change, positive = activation” value was inactive: -27.4%.

On to `CC(=O)N1CCc2c(sc3c2c(=O)n(-c2ccc(C)cc2)c(=O)n3CC(=O)Nc2ccccc2)C1`, for which the “activity change, positive = activation” value is inactive: -7.91%.

`Cn1c(Oc2ccc(F)cc2)nc2c1c(=O)n(Cc1ccccc1Cl)c(=O)n2C`: the “activity change, positive = activation” value is inactive: -44.7%.

Turning to `COc1ccccc1NC(=O)c1c(NC(=O)c2ccccc2F)sc2c1CCC2`, the “activity change, positive = activation” value was inactive: -3.71%.

`COC(=O)c1c(NC(=O)c2ccccc2C(=O)O)sc2c1CCCC2`: the “activity change, positive = activation” value was inactive: -4.53%.

As for `Cc1ccc(-c2cc(C(=O)NCc3ccccc3)c3c(-c4ccc(C)cc4)[nH]nc3n2)cc1`, the “activity change, positive = activation” value is inactive: -6.75%.

With `COc1ccc(Cn2ccc3nc(C)c(C(=O)Nc4ccc(C)c(F)c4)cc3c2=O)cc1`, the “activity change, positive = activation” value was inactive: 2.15%.

Turning to `COc1ccc(N2CCN(C(=O)c3nc(-c4ccc(Cl)cc4)n4c3CCCCC4)CC2)cc1`, the “activity change, positive = activation” value was inactive: -6.17%.

For the compound `COc1ccc(NC(=O)c2nnn(Cc3ccc(Br)cc3F)c2N)c(OC)c1`, the “activity change, positive = activation” value is inactive: -19.6%.

For `O=C(C1CCN(S(=O)(=O)c2cccc3nonc23)CC1)N1CCN(c2ccccc2)CC1`, the “activity change, positive = activation” value was inactive: -19.1%.
